Molecular target: human Tie2 (human, UniProt Q02763 23-1124)
Assay: cell-based or functional assay

UniProt Q02763, sequence (Q02763 23-1124): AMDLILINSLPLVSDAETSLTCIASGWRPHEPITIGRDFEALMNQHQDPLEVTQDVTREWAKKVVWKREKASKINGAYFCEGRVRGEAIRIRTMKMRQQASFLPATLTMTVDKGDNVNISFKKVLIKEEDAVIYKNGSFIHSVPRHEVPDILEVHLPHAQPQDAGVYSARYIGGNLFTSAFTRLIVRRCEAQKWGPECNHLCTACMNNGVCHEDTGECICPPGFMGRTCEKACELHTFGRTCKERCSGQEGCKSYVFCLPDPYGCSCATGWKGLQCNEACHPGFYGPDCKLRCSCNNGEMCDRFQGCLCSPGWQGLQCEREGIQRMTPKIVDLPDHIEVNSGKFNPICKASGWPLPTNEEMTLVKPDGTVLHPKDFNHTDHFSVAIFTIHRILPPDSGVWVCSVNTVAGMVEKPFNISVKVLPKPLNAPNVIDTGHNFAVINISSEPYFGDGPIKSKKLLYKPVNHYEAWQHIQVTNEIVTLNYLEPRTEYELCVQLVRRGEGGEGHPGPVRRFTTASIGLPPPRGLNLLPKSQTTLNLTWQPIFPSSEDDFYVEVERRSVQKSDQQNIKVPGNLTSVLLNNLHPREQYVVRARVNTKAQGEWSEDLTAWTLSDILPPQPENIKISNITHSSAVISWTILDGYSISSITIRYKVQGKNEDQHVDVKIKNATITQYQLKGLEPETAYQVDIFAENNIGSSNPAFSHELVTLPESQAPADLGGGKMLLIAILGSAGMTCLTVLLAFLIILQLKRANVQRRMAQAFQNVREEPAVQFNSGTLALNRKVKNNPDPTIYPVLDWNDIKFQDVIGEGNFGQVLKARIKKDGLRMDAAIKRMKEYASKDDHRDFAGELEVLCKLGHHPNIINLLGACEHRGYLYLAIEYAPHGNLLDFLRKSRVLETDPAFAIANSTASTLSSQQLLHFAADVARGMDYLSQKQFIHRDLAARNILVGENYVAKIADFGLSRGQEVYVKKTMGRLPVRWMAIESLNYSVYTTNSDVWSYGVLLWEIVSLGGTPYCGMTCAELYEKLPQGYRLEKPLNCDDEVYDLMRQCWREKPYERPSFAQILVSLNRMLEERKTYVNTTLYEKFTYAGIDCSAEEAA

| Binder | EC50, pTie2 in HUVEC (in vitro potency; the sheet's head prints no unit, EC50 in nM per legend paragraph 17) [nM] |
| --- | --- |
| #18 (bispecific antibody, human IgG1, kappa, L234A L235A) heavy chain: DVQLVESGGGVVRPGESLRLSCTASGFTFDSYGMSWVRQAPGKGLEWVSSINVGDNTYYADSVRGRFIISRDSSRNTLYLQMNSLTAEDTAVYYCANWNSFFDYWGLGTLVTVSSASTKGPSVFPLAPSSKSTSGGTAALGCLVKDYFPEPVTVSWNSGALTSGVHTFPAVLQSSGLYSLSSVVTVPSSSLGTQTYICNVNHKPSNTKVDKKVEPKSCDKTHTCPPCPAPEAAGGPSVFLFPPKPKDTLMISRTPEVTCVVVDVSHEDPEVKFNWYVDGVEVHNAKTKPREEQYNSTYRVVSVLTVLHQDWLNGKEYKCKVSNKALGAPIEKTISKAKGQPREPQVYTLPPSREEMTKNQVSLTCLVKGFYPSDIAVEWESNGQPENNYKTTPPVLDSDGSFFLYSKLTVDKSRWQQGNVFSCSVMHEALHNHYTQKSLSLSPGKGGGGSGGGGSGGGGSGGGGSDIQLTQSPSSLSASVGDRVTITCSASQDISNYLNWYQQKPGKAPKVLIYFTSSLHSGVPSRFSGSGSGTDFTLTISSLQPEDFATYYCQQYSTVPWTFGQGTKVEIKRTVAAPSVFIFPPSDEQLKSGTASVVCLLNNFYPREAKVQWKVDNALQSGNSQESVTEQDSKDSTYSLSSTLTLSKADYEKHKVYACEVTHQGLSSPVTKSFNRGECGGGGSGGGGSGGGGSGGGGSGGGGSGGGGSGGGGSEVQLVESGGGLVQPGGSLRLSCAASGYDFTHYGMNWVRQAPGKGLEWVGWINTYTGEPTYAADFKRRFTFSLDTSKSTAYLQMNSLRAEDTAVYYCAKYPYYYGTSHWYFDVWGQGTLVTVSSASTKGPSVFPLAPSSKSTSGGTAALGCLVKDYFPEPVTVSWNSGALTSGVHTFPAVLQSSGLYSLSSVVTVPSSSLGTQTYICNVNHKPSNTKVDKKVEPKSCDKTHL light chain (kappa): EIVLTQSPGTLSLSPGEIATLSCRASQNVRSDLAWYQQKPGQAPRLLIYDASNRATGIPDRFSGSGSGTDFTLTISSLQSEDFAVYYCQQYSNWPPLTFGGGTKVEIKRTVAAPSVFIFPPSDEQLKSGTASVVCLLNNFYPREAKVQWKVDNALQSGNSQESVTEQDSKDSTYSLSSTLTLSKADYEKHKVYACEVTHQGLSSPVTKSFNRGEC | 5.86 |
| #19 (bispecific antibody, human IgG1, kappa, L234A L235A) heavy chain: DVQLVESGGGVVRPGESLRLSCTASGFTFDSYGMSWVRQAPGKGLEWVSSINVGDNTYYADSVRGRFIISRDSSRNTLYLQMNSLTAEDTAVYYCANWNSFFDYWGLGTLVTVSSASTKGPSVFPLAPSSKSTSGGTAALGCLVKDYFPEPVTVSWNSGALTSGVHTFPAVLQSSGLYSLSSVVTVPSSSLGTQTYICNVNHKPSNTKVDKKVEPKSCDKTHTCPPCPAPEAAGGPSVFLFPPKPKDTLMISRTPEVTCVVVDVSHEDPEVKFNWYVDGVEVHNAKTKPREEQYNSTYRVVSVLTVLHQDWLNGKEYKCKVSNKALGAPIEKTISKAKGQPREPQVYTLPPSREEMTKNQVSLTCLVKGFYPSDIAVEWESNGQPENNYKTTPPVLDSDGSFFLYSKLTVDKSRWQQGNVFSCSVMHEALHNHYTQKSLSLSPGKGGGGSGGGGSGGGGSGGGGSDIQLTQSPSSLSASVGDRVTITCSASQDISNYLNWYQQKPGKAPKVLIYFTSSLHSGVPSRFSGSGSGTDFTLTISSLQPEDFATYYCQQYSTVPWTFGQGTKVEIKRTVAAPSVFIFPPSDEQLKSGTASVVCLLNNFYPREAKVQWKVDNALQSGNSQESVTEQDSKDSTYSLSSTLTLSKADYEKHKVYACEVTHQGLSSPVTKSFNRGECGGGGSGGGGSGGGGSGGGGSGGGGSGGGGSGGGGSGGGGSGGGGSGGGGSEVQLVESGGGLVQPGGSLRLSCAASGYDFTHYGMNWVRQAPGKGLEWVGWINTYTGEPTYAADFKRRFTFSLDTSKSTAYLQMNSLRAEDTAVYYCAKYPYYYGTSHWYFDVWGQGTLVTVSSASTKGPSVFPLAPSSKSTSGGTAALGCLVKDYFPEPVTVSWNSGALTSGVHTFPAVLQSSGLYSLSSVVTVPSSSLGTQTYICNVNHKPSNTKVDKKVEPKSCDKTHL light chain (kappa): EIVLTQSPGTLSLSPGEIATLSCRASQNVRSDLAWYQQKPGQAPRLLIYDASNRATGIPDRFSGSGSGTDFTLTISSLQSEDFAVYYCQQYSNWPPLTFGGGTKVEIKRTVAAPSVFIFPPSDEQLKSGTASVVCLLNNFYPREAKVQWKVDNALQSGNSQESVTEQDSKDSTYSLSSTLTLSKADYEKHKVYACEVTHQGLSSPVTKSFNRGEC | 6.37 |

Reference: US20250250343A1 (UNITY BIOTECHNOLOGY, published 2025)
